Among the data in PubChem BioAssay AID463173 (ICCB-Longwood Screening Facility, Harvard Medical School, 2010) are survival values, retold here.

Hit rate of the full screen: of about 52,000 compounds, about 4,300 (8.3%) were called active. No stated cut-off is given here; in the data, active means survival mostly below about 52% (no sharp cut-off); inactive means mostly above about 56%. The list shows a part of the results.

For the experiment, the system named is DeltatarO mutant. Description: S. aureus survival, RN4220 and DeltatarO strains – OD600, teichoic acid synthesis inhibitors, primary screen (AID 463173). To be noted: S. aureus RN4220 wild type/DeltatarO growth, OD600, 18 h, hits give low values, screened at 18.75 µg/mL (by protocol).
With `COc1ccc(CNC(=O)c2cc3cc4ccc(C)cc4nc3o2)cc1`, the survival was inactive: 74%.

As for `O=C(Cc1ccccc1)Nc1c(C(=O)c2ccccc2)oc2ccccc12`, the survival is active: 3%.

Take `Cc1ccc(NC(=O)CSc2nnc(-c3nnn(-c4ccc(F)cc4)c3C)o2)cc1Br`: the survival is inactive: 47%.

For the molecule `Cc1nc(-c2cccc(F)c2)sc1CCNC(=O)c1c(F)cccc1Cl`, the survival was inactive: 85%.

As to `COC(=O)c1ccc(C2c3c(oc4ccc(C)cc4c3=O)C(=O)N2Cc2ccc3c(c2)OCO3)cc1` (configuration not stated), the survival was inactive: 94%.

As for `O=C(O)C1CC2C=CC1O2` (configuration not stated), the survival is inactive: 99%.

Turning to `O=C(O)c1ccccc1C(=O)N1CCC(C(=O)c2ccccc2)CC1`, the survival was inactive: 104%.

On to `O=C(c1ccccc1)N1CCc2ccccc21`, for which the survival is inactive: 81%.

Regarding `CCOC(=O)c1c(Nc2ccc(O)cc2)nnc(-c2ccccc2)c1-c1ccccc1`, the survival is inactive: 95%.

`Cc1ccc(S(=O)(=O)c2nnn3c2nc(NCc2ccc4c(c2)OCO4)c2sccc23)cc1`: the survival was inactive: 113%.

For `COc1cccc(CNC(=O)Cn2ccc3cc(S(=O)(=O)N4CCCC4)ccc32)c1OC`, the survival was inactive: 95%.

Regarding `O=C(Nc1ccc(OC(F)(F)F)cc1)C(Cc1ccccc1)NS(=O)(=O)c1cccc2nsnc12` (configuration not stated), the survival was active: 49%.

For `COc1ccccc1C(=O)Nc1cccc(C(=O)OCc2cc(=O)n3nc(C4CC4)sc3n2)c1`, the survival is inactive: 74%.

Consider `CC(C)Cc1nn2c(=O)cc(COC(=O)CNC(=O)c3ccc(C(C)(C)C)cc3)nc2s1`, for which the survival is inactive: 107%.

Turning to `Cc1ccc(C)c(CNC(=O)c2ccc3c(c2)nc2n3CCOC2)c1`, the survival was inactive: 67%.

Turning to `CC1CCCN(CCCNC(=O)c2ccc3c(c2)N(Cc2cccc(Cl)c2)C(=O)c2ccccc2S3(=O)=O)C1` (configuration not stated), the survival was inactive: 102%.

Turning to `Cc1ccc2c(NC(=O)C3CC3)cccc2n1`, the survival was inactive: 105%.

As for `O=C(Nc1ccc(C(=O)N2CCCCC2)cc1)c1nsc2ccccc12`, the survival is inactive: 83%.

Consider `CS(=O)(=O)c1ccccc1-c1nnc(NC(=O)c2ccc3c(c2)OCCO3)o1`, for which the survival was active: -4%.

With `Cc1ccc(C)c(CN2C(=O)c3ccccc3S(=O)(=O)c3ccc(C(=O)Nc4cc(F)ccc4F)cc32)c1`, the survival is inactive: 80%.

For the molecule `COc1ccc(NC(=O)c2nnn(CC(=O)Nc3c(C)cc(C)cc3C)c2N)cc1OC`, the survival was inactive: 91%.

Turning to `Fc1ccc(Nc2nc(SCc3cccc(Cl)c3)nc3ccccc23)cc1`, the survival was inactive: 70%.

As for `COc1ccc(CNC(=O)CN(c2ccc(C)cc2)S(=O)(=O)c2c(C)noc2C)cc1`, the survival is inactive: 74%.

Consider `Cc1ccc(OCCCCn2cnc3ccccc32)cc1`, for which the survival was active: 11%.

`CCN(CC)S(=O)(=O)c1ccc2c(c1)nc(CN(C)C(=O)Nc1ccc(F)cc1)n2C`: the survival is inactive: 97%.

As to `CC(=O)N(Cc1cccnc1)Cc1cc2cc3c(cc2n2nnnc12)OCO3`, the survival was inactive: 103%.

Turning to `CC1=C(C(=O)Nc2ccccc2)C(c2ccc(C)cc2)n2nc(SCc3ccccc3C)nc2N1` (configuration not stated), the survival was inactive: 94%.

In the case of `CCCOc1ccc(C(=O)Nc2nonc2-c2ccc(OCC)cc2)cc1`, the survival is inactive: 70%.

Consider `COc1ccc(CNC(=O)C2=C(C)C(=O)OC23CCCCC3)cc1OC`, for which the survival was inactive: 99%.

As to `O=C1CCCC(O)=C1C=NCc1cccnc1`, the survival is inactive: 88%.

`Cc1cc(C)cc(NC(=O)CSc2nc3c([nH]c4ccccc43)c(=O)n2-c2ccc(F)cc2)c1`: the survival was inactive: 112%.

With `CN(CCc1ccccn1)Cc1ccccc1`, the survival was inactive: 101%.

For `CCOC(=O)C1CCN(CC(=O)N2C(C)CCCC2C)CC1` (configuration not stated), the survival was inactive: 95%.

Take `CCOc1cc(C#N)c(NC(=O)c2ccc(OC)c(S(=O)(=O)N3CCN(c4ccccc4)CC3)c2)cc1OCC`: the survival is inactive: 98%.

`N#CC1=C2SCN(C3CCCCC3)CN2C(=O)CC1c1ccc(Br)cc1` (configuration not stated): the survival is inactive: 97%.

Take `CCN(CC)C(=O)c1cc(-c2ccccc2)on1`: the survival was inactive: 101%.

On to `CCCOc1ccc(CNC(=O)c2oc3ccc4c(c3c2C)C(=O)CC(C)(CC)O4)cc1` (configuration not stated), for which the survival was inactive: 68%.

Take `CCCc1ccc(S(=O)(=O)N2CCC(c3nnnn3-c3ccc(OC)cc3)CC2)cc1`: the survival is inactive: 70%.

On to `CC(=O)Nc1ccc(/C=C2/SC(=Nc3ccccc3)NC2=O)cc1`, for which the survival was inactive: 99%.

In the case of `O=C(C1CCN(S(=O)(=O)c2ccccc2)CC1)N1CCCCC1`, the survival is inactive: 81%.

Turning to `Cc1oc2cc3oc(=O)c(CC(=O)N4CCCCC4)c(C)c3cc2c1C`, the survival is inactive: 73%.

For `COc1cccc(CNc2ncnc3onc(C)c23)c1`, the survival was inactive: 125%.

Turning to `COc1ccc(N(CC(=O)N2CCc3ccccc3C2)S(=O)(=O)c2ccc(C)cc2)cc1Cl`, the survival was inactive: 57%.

For the molecule `O=C(Cn1c(=O)n(Cc2ccco2)c(=O)c2oc3ccccc3c21)Nc1ccc(F)c(Cl)c1`, the survival was active: 44%.

Consider `CNc1ccc(-c2nc(-c3ccccc3C)no2)cc1[N+](=O)[O-]`, for which the survival was inactive: 83%.

With `COc1ccc(C2=C(C(C)=O)Sc3nnc(-c4ccc(Cl)cc4)n3N2C(C)=O)cc1OC`, the survival was inactive: 101%.

Take `c1ccc(-c2cc3ncc4c(n3n2)-c2ccccc2OC4)cc1`: the survival is inactive: 77%.

In the case of `CN1CCN(CCCNC(=O)c2cnn(-c3ccc(F)cc3)c2-n2cccc2)CC1`, the survival was inactive: 83%.

Turning to `O=C(CSc1nc(-c2ccco2)cc(C(F)(F)F)n1)N1CCCC1`, the survival is inactive: 79%.

Consider `O=C(Nc1c(C(=O)N2CCN(c3ccccc3F)CC2)oc2ccccc12)c1ccco1`, for which the survival was inactive: 69%.

Regarding `CSc1nc(-c2ccccc2Cl)nc2c1Cc1c(CO)cnc(C)c1O2`, the survival was inactive: 114%.

On to `COc1ccc(CNC(=O)Cn2c(=O)c3cccn3c3ccccc32)cc1`, for which the survival was inactive: 47%.

On to `O=C1C2=C(Nc3ncnn3C2c2ccccc2)c2ccccc21` (configuration not stated), for which the survival is inactive: 80%.

For `CCc1nnc2c(N3CCN(c4cccc(C(F)(F)F)c4)CC3)nc3ccccc3n12`, the survival is inactive: 108%.

Regarding `Cc1cc(C)cc(C(=O)n2nc(C)c(S(=O)(=O)N3CCCCCC3)c2C)c1`, the survival was inactive: 86%.

Regarding `O=C(Nc1ccc(Cl)cc1Cl)c1cc(S(=O)(=O)N2CCCCCC2)ccc1F`, the survival is inactive: 76%.

With `O=C1CC(c2cc(F)cc(F)c2)c2cc3c(cc2N1)OCO3` (configuration not stated), the survival was inactive: 97%.

On to `Cc1c(C(=O)N2CCN(c3ccc(F)cc3)CC2)sc2nc3n(c(=O)c12)CCC3`, for which the survival was inactive: 72%.

With `CCCCS(=O)(=O)c1oc(-c2cccs2)nc1S(=O)(=O)c1ccc(F)cc1`, the survival is inactive: 56%.

As for `CCN(C(=O)CSc1nnc(Cn2nnc3ccccc32)o1)c1nc(-c2ccccc2)cs1`, the survival was inactive: 80%.

Consider `O=C(Cn1ccn(-c2ccc(F)cc2)c(=O)c1=O)Nc1ccccc1C(F)(F)F`, for which the survival was inactive: 50%.

Turning to `CC(C)(C)OC(=O)N1CC=C2C(C#N)=C(N)C(C#N)(C#N)C(c3ccc4c(c3)OCO4)C2C1` (configuration not stated), the survival is active: 35%.

On to `CCCCc1nn2c(=O)cc(COC(=O)c3ccccc3NC(=O)c3cccs3)nc2s1`, for which the survival was inactive: 87%.

Regarding `CN(C)c1nc(Cl)nc(NCCCC(=O)O)n1`, the survival was inactive: 77%.

Turning to `CCCOc1ccc(NC(=O)CC2C(=O)N(c3ccc(C)cc3)C(=O)N2CCc2ccncc2)cc1` (configuration not stated), the survival was inactive: 98%.

Regarding `CC(=O)N1CCc2cc(S(=O)(=O)NC(CC(C)C)C(=O)NCc3ccccc3Cl)ccc21` (configuration not stated), the survival is inactive: 76%.

For `Cc1c(NC(=O)c2cc(-c3ccccc3O)on2)c(=O)n(-c2ccccc2)n1C`, the survival is active: 51%.

Consider `O=c1c(NCc2ccccc2Cl)nccn1-c1ccccc1`, for which the survival is active: 17%.

`CCOC(=O)CCC(=O)Nc1nnc2n1CCS2`: the survival was inactive: 66%.

On to `COc1ccc(CNC(=O)CCc2c(C)c3cc4c(C)c(C)oc4cc3oc2=O)cc1`, for which the survival was inactive: 90%.

In the case of `Cc1ccc(C(=O)Nc2nnc(S(=O)(=O)N3CCCCCC3)s2)cc1`, the survival is inactive: 79%.

In the case of `CC(=O)Nc1ccc(-c2nnc3n(Cc4ccc(C)cc4)c(=O)c4ccccc4n23)cc1`, the survival is inactive: 107%.

For the molecule `CC(=O)NC1Sc2ccccc2N=C1c1ccccc1` (configuration not stated), the survival was inactive: 90%.

With `CCC(C)Nc1nc(NC)nc(NC(C)CC)n1` (configuration not stated), the survival was inactive: 93%.

`CCCCCOc1ccc(Cn2c(=O)oc3ccc(C)cc32)cc1OC`: the survival was active: 4%.

As for `CCC(=O)N1CCc2cc(Br)cc(S(=O)(=O)N3CCC(C(=O)Nc4ccccc4F)CC3)c21`, the survival was active: 43%.

Turning to `Cc1ccc(S(=O)(=O)Cn2nnnc2CN(Cc2ccco2)Cc2cccs2)cc1`, the survival was inactive: 61%.

`Cc1ccc(C(=O)NCC(=O)OCc2cc(=O)n3ccsc3n2)cc1`: the survival was inactive: 74%.

For `CCc1ccc(NC(=O)CSc2ccc3nc(-c4ccc(OC)cc4)cn3n2)cc1`, the survival is inactive: 91%.

As to `CC(C)Cn1c(C2CC(=O)N(c3ccccc3Cl)C2)nc2ccccc21` (configuration not stated), the survival was inactive: 101%.

In the case of `Cc1cccc(NC(=O)Cn2nnc(C(=O)NCc3ccco3)c2N)c1`, the survival was inactive: 121%.

Turning to `Cc1oc(-c2ccc(C(=O)NCCN(C)C)cc2)nc1CS(=O)(=O)c1ccccc1`, the survival is inactive: 96%.

For `O=C(Cn1nc(-c2ccccc2)nc(Cc2ccccc2)c1=O)Nc1ccc(Cl)cc1`, the survival is inactive: 88%.

In the case of `Cc1cccc(-n2c(N)cc(=O)nc2SCC(=O)Nc2ccc(F)cc2)c1C`, the survival was inactive: 96%.

Consider `CCOc1ccc(NC(=O)C2CCCN(c3cnccn3)C2)cc1` (configuration not stated), for which the survival is inactive: 86%.

As for `Cc1ccc(NC(=O)CN2C(=O)C(C)(C)Oc3ccc(C(=O)N4CCCC4)cc32)cc1`, the survival was inactive: 68%.

`CCOc1ccc(Cl)cc1CNCCCSc1nnnn1C`: the survival is inactive: 77%.

Consider `CC(C)(C)C(=O)CSc1nnc(-c2ccccc2)o1`, for which the survival is inactive: 85%.

Take `Clc1nc(Cl)nc(NNc2nc(Cl)nc(Cl)n2)n1`: the survival was inactive: 75%.

For `CCOC(=O)CNc1c(-c2ccc(OC)cc2)nc2ccc(Cl)cn12`, the survival was inactive: 58%.

With `CCN(CC)S(=O)(=O)c1ccc2c(c1)N(CC(=O)Nc1ccc(OC)cc1)C(=O)CS2`, the survival was inactive: 78%.

On to `COc1nc(OC)nc(N2CCC(C(=O)NCC3CCCCC3)CC2)n1`, for which the survival was inactive: 78%.
